# Assay results as given in the supplement of paper PMC4604168 (melanoma cell lines).
# Some of the results follow. Most values come without repeats; read them as rough.
# Tested on: A101D
# Assay: cell count relative to DMSO control; melanoma cells; higher = more viable cells
# Details: library dose: standard library concentration; 72 h
# 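Note: cells treated in 1,536-well plates, then fixed and DAPI-stained, with nuclei counted from automated high-throughput microscope images.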
row,Structure (SMILES),cell count [%]
1,"O=C(O)[C@@H]1[O][Sb](=[O])([O][Sb]2(=[O])[O][C@H]([C@H](O)CO)[C@H](O)[C@H](C(=O)O)[O]2)[O][C@H]([C@H](O)CO)[C@@H]1O (stereo partly specified) [stibogluconate] + COc1cc(Nc2ncc(F)c(Nc3ccc4c(n3)NC(=O)C(C)(C)O4)n2)cc(OC)c1OC [Tamatinib] (first compound 10 µM, partner dose 2 µM)",16
2,"O=C(Nc1cc(C(F)(F)F)cc(C(F)(F)F)c1)c1cc(Cl)ccc1O + Cc1ccc(NC(=O)c2cccc(N(C)C)c2)cc1NC(=O)c1ccc(O)cc1 [ZM336372] (first compound 0.08 µM, partner dose 10 µM)",66.4
3,"O=C(O)c1ccc2c(c1)nc(Nc1cccc(Cl)c1)c1ccncc12 + Nc1nc(F)nc2c1ncn2[C@@H]1O[C@H](CO)[C@@H](O)[C@@H]1O [fludarabine] (first compound 2 µM, partner dose 1 µM)",68
4,"Cn1nnc2c(C(N)=O)ncn2c1=O [temozolomide] + Cc1cc(N2CCOCC2)cc2[nH]c(-c3c(NC[C@@H](O)c4cccc(Cl)c4)cc[nH]c3=O)nc12 [BMS536924] (first compound 10 µM, partner dose 1 µM)",83.5
5,"O=C(O)[C@@H]1[O][Sb](=[O])([O][Sb]2(=[O])[O][C@H]([C@H](O)CO)[C@H](O)[C@H](C(=O)O)[O]2)[O][C@H]([C@H](O)CO)[C@@H]1O (stereo partly specified) [stibogluconate] + NC(=O)Nc1cc(-c2cccc(F)c2)sc1C(=O)N[C@H]1CCCNC1 [AZD7762] (first compound 10 µM, partner dose 0.1 µM)",63.2
6,"O=C(O)[C@@H]1[O][Sb](=[O])([O][Sb]2(=[O])[O][C@H]([C@H](O)CO)[C@H](O)[C@H](C(=O)O)[O]2)[O][C@H]([C@H](O)CO)[C@@H]1O (stereo partly specified) [stibogluconate] + COc1ccc(Cl)c(Nc2nc3ccccc3nc2NS(=O)(=O)c2cccc(NC(=O)C(C)(C)N)c2)c1 [XL147] (first compound 10 µM, partner dose 4 µM)",96.5
7,"Cn1nnc2c(C(N)=O)ncn2c1=O [temozolomide] + O=C(O)c1ccc(-c2c[nH]c3ncc(-c4ccccc4)cc23)cc1C1CCCC1 [GSK650394] (first compound 10 µM, partner dose 0.8 µM)",66.7
8,"Cn1nnc2c(C(N)=O)ncn2c1=O [temozolomide] + CCN(CC)CCCCNc1ncc2cc(-c3cc(OC)cc(OC)c3)c(NC(=O)NC(C)(C)C)nc2n1 [PD173074] (first compound 10 µM, partner dose 0.5 µM)",105
9,"O=C(O)[C@@H]1[O][Sb](=[O])([O][Sb]2(=[O])[O][C@H]([C@H](O)CO)[C@H](O)[C@H](C(=O)O)[O]2)[O][C@H]([C@H](O)CO)[C@@H]1O (stereo partly specified) [stibogluconate] + OCc1c[nH]c2ccccc12 [Indole-3-carbinol] (first compound 10 µM, partner dose 4 µM)",94.5
10,"Cn1nnc2c(C(N)=O)ncn2c1=O [temozolomide] + O=C(Nc1cccc(Cl)c1)Nc1ncc(CCNc2ncnc3ccsc23)s1 [SNS314] (first compound 10 µM, partner dose 0.004 µM)",76.9
11,"O=C(Nc1cc(C(F)(F)F)cc(C(F)(F)F)c1)c1cc(Cl)ccc1O + Cc1cc(N2CCOCC2)cc2[nH]c(-c3c(NC[C@@H](O)c4cccc(Cl)c4)cc[nH]c3=O)nc12 [BMS536924] (first compound 0.08 µM, partner dose 1 µM)",84.2
12,"O=C(O)c1ccc2c(c1)nc(Nc1cccc(Cl)c1)c1ccncc12 + Cn1cncc1[C@@](N)(c1ccc(Cl)cc1)c1ccc2c(c1)c(-c1cccc(Cl)c1)cc(=O)n2C [tipifarnib] (first compound 2 µM, partner dose 0.05 µM)",66.6
13,"Cc1cc(N2CCOCC2)cc2[nH]c(-c3c(NC[C@@H](O)c4cccc(Cl)c4)cc[nH]c3=O)nc12 + COc1cc2c(Oc3ccc4[nH]c(C)cc4c3F)ncnc2cc1OCCCN1CCCC1 [cediranib] (first compound 1 µM, partner dose 2 µM)",76.2
14,"O=C(Nc1cc(C(F)(F)F)cc(C(F)(F)F)c1)c1cc(Cl)ccc1O + Cc1ccc(Nc2nccc(N(C)c3ccc4c(C)n(C)nc4c3)n2)cc1S(N)(=O)=O [Pazopanib] (first compound 0.08 µM, partner dose 2 µM)",99.2
15,"O=C(O)c1ccc2c(c1)nc(Nc1cccc(Cl)c1)c1ccncc12 + O=C(CCCCCCC(=O)Nc1ccccc1)NO [vorinostat] (first compound 2 µM, partner dose 0.4 µM)",76.6
16,"Cn1nnc2c(C(N)=O)ncn2c1=O [temozolomide] + NC(=O)Nc1cc(-c2cccc(F)c2)sc1C(=O)N[C@H]1CCCNC1 [AZD7762] (first compound 10 µM, partner dose 0.1 µM)",68.1
17,"O=C(Nc1cc(C(F)(F)F)cc(C(F)(F)F)c1)c1cc(Cl)ccc1O + NC1(c2ccc(-c3nc4ccn5c(=O)[nH]nc5c4cc3-c3ccccc3)cc2)CCC1 [MK2206] (first compound 0.08 µM, partner dose 2 µM)",81.6
18,"O=C(O)[C@@H]1[O][Sb](=[O])([O][Sb]2(=[O])[O][C@H]([C@H](O)CO)[C@H](O)[C@H](C(=O)O)[O]2)[O][C@H]([C@H](O)CO)[C@@H]1O (stereo partly specified) [stibogluconate] + Nc1cccc2c1CN(C1CCC(=O)NC1=O)C2=O [lenalidomide] (first compound 10 µM, partner dose 5 µM)",93.2
19,"O=C(O)[C@@H]1[O][Sb](=[O])([O][Sb]2(=[O])[O][C@H]([C@H](O)CO)[C@H](O)[C@H](C(=O)O)[O]2)[O][C@H]([C@H](O)CO)[C@@H]1O (stereo partly specified) [stibogluconate] + Nc1nc(F)nc2c1ncn2[C@@H]1O[C@H](CO)[C@@H](O)[C@@H]1O [fludarabine] (first compound 10 µM, partner dose 1 µM)",114
20,"O=C(O)c1ccc2c(c1)nc(Nc1cccc(Cl)c1)c1ccncc12 + OCc1c[nH]c2ccccc12 [Indole-3-carbinol] (first compound 2 µM, partner dose 4 µM)",111
21,"Cn1nnc2c(C(N)=O)ncn2c1=O [temozolomide] + Cn1cncc1[C@@](N)(c1ccc(Cl)cc1)c1ccc2c(c1)c(-c1cccc(Cl)c1)cc(=O)n2C [tipifarnib] (first compound 10 µM, partner dose 0.05 µM)",93.3
